This list was built around the results that the source calls inconclusive (neither active nor inactive); the mix of calls is not that of the screen. For part of these data: A potency beside an inconclusive call is a rough fit, not a confirmed value. Activity calls are given as the source filed them. Unless noted, calls follow the shape of the dose curve; as a rule, active = well fitted curve in the direction sought with a large enough effect; inconclusive = small, poorly fitted or top-dose-only effect, or another doubt; inactive = no such curve, though single readings can be large; an effect the other way counts as inactive or inconclusive.
Tests used:
[1] = NFAT Signaling Pathway (AID 444; active = well fitted curve in either direction with a large enough effect, not every such curve was filed as active; inconclusive = small, poorly fitted or top-dose-only effect, or another doubt;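 also: carbachol stimulus at about its EC50 of 1 µM final; % is scaled to controls: 0 for no effect and ±100 for the full control effect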); settings: Jurkat NFAT-bla M1, carbachol, beta-lactamase ratio, 5 h; at 7.69 µM (top of the series) unless noted
Procedure, shortened: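 Read-out: CCF4 FRET ratio (460 nm/530 nm) after 1 h RT dye loading, used for %activity and AC50 from titration series. Cells: Jurkat NFAT-β-lactamase/M1 line, treated with compound plus 1 uM carbachol for 5 h, 37 °C.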

[2] = qHTS Assay for Identification of Small Molecule Antagonists for NFkB Signaling Pathway (AID 895; active = well fitted inhibition curve with a large enough effect in the signal ratio, with a control signal flat, not every such curve was filed as active; inconclusive = small, poorly fitted or top-dose-only effect, or effect the other way, or a change in a side signal; the % refers to the signal ratio; also: potency is read from the fitted curve at half-maximal effect); settings: NFkB beta-lactamase reporter cells, FRET ratio 460/530; activity change, negative = inhibition: at 38.3 µM (top of the series) unless noted
Procedure, shortened: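 Beta-lactamase reporter read-out (460 and 530 nm emission ratio, 405 nm excitation, 2 hrs substrate loading RT) after 5 hr stimulation with 10 pM TNF alpha in compound-treated NFkB-bla ME-180 cells in low-serum medium.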

[3] = qHTS Assay for Identification of Small Molecule Agonists for Thrombopoietin (TPO) Signaling Pathway (AID 917); also: % is scaled to controls: 0 for no effect and ±100 for the full control effect
Procedure, shortened: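 Murine Ba/F3 cells stably expressing human TPO receptor and a Glycoprotein IIb promoter–luciferase reporter were IL-3-starved overnight, then treated with compounds plus TPO (26 pM final, its EC50) for 24 hrs at 37 C; luminescence was read.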

[4] = qHTS Assay for Identification of Small Molecule Antagonists for Thrombopoietin (TPO) Signaling Pathway (AID 918); settings: TPO-dependent cell signaling reporter, antagonist mode; activity change, negative = inhibition: at 38.5 µM (top of the series); also: nearly all actives have a fitted effect of over 60% in size
Procedure, shortened: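 Murine Ba/F3 cells stably expressing human TPO receptor and a Glycoprotein IIb promoter–luciferase reporter were IL-3-starved overnight, treated with compounds plus TPO (26 pM final, its EC50) for 24 hrs at 37 C, then read by luminescence.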

[5] = biological target: Muscarinic acetylcholine receptor M1 (Rattus norvegicus) (UniProt P08482); experiment: qHTS Assay for Antagonists of Acetylcholine Muscarinic M1 Receptor: Measurement of IP-One Response (AID 944); also: potency is read from the fitted curve at half-maximal effect; nearly all actives have a fitted effect of over 75% in size
[6] = biological target: Endonuclease 4 (Escherichia coli (strain K12)) (UniProt P0A6C1); experiment: Counterscreen for APE1 Inhibitors: qHTS Validation Assay for Inhibitors of Endonuclease IV (AID 1708); also: % is scaled to controls: 0 for no effect and ±100 for the full control effect
Procedure, shortened: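 Enzymatic AP-site incision assay using a double-stranded THF substrate labelled with TAMRA and BHQ-2; released fluorescence signals activity. Enzyme 2 nM, substrate 50 nM, 15 min compound preincubation.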

[7] = qHTS for differential inhibitors of proliferation of Plasmodium falciparum line 7G8 (AID 1815);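 also: potency is read from the fitted curve at half-maximal effect; parasite growth measured after three days of incubation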
[8] = qHTS for differential inhibitors of proliferation of Plasmodium falciparum line 3D7 (AID 1876); also: potency is read from the fitted curve at half-maximal effect
[9] = qHTS for differential inhibitors of proliferation of Plasmodium falciparum line D10 (AID 1877);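 also: potency is read from the fitted curve at half-maximal effect; parasites grown with compound for 72 h before DNA staining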
[10] = qHTS for differential inhibitors of proliferation of Plasmodium falciparum line Dd2 (AID 1882); settings: Potency: Plasmodium falciparum Dd2 proliferation inhibition; also: potency is read from the fitted curve at half-maximal effect; nearly all actives have a fitted effect of over 65% in size
Procedure, shortened: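 SYBR Green I DNA fluorescence read-out, ex 485/em 535 nm. Signals were normalized to 0.29 uM artemisinin and DMSO wells, then corrected using vehicle-only plates flanking each stack. Parasite growth ran 72 h in erythrocytes before lysis.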

[11] = qHTS for differential inhibitors of proliferation of Plasmodium falciparum line HB3 (AID 1886); settings: Potency: Plasmodium falciparum HB3 proliferation inhibition;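 also: potency is read from the fitted curve at half-maximal effect; parasites grown with compound for 72 h before SYBR Green readout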
[12] = Validation screen for small molecules that induce DNA re-replication in MCF 10A normal breast cells (AID 463097); also: potency is read from the fitted curve at half-maximal effect; nearly all actives have a fitted effect of over 60% in size
Procedure, shortened: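 Readout: Hoechst nuclear fluorescence intensity, 405 ex / 500-530 em, by scanning plate imager; re-replication scored as increase in nuclei with elevated DNA content. Cells exposed to compound 48 hr, 37 C, 5% CO2 beforehand.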

[13] = Quantitative high throughput screen for delayed death inhibitors of the malarial parasite plastid, 48 hour incubation (AID 488752); also: potency is read from the fitted curve at half-maximal effect; nearly all actives have a fitted effect of over 65% in size
Procedure, shortened: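 Erythrocytes infected with P. falciparum carrying an integrated firefly luciferase reporter (2% hematocrit, 0.1% parasitemia final) were exposed to compounds in RPMI 1640/0.5% Albumax for 48 h at 37 C, 5% CO2. Growth inhibition was scored as reduced luminescence.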

[14] = biological target: Transient receptor potential cation channel subfamily V member 1 (Homo sapiens) (UniProt Q8NER1); experiment: HTS Assay for Compounds that Act as Enhancers of the Vanilloid Receptor 1 (AID 488979); also: 0% is about no effect
Sequence of UniProt Q8NER1 (Q8NER1 whole entry, looked up): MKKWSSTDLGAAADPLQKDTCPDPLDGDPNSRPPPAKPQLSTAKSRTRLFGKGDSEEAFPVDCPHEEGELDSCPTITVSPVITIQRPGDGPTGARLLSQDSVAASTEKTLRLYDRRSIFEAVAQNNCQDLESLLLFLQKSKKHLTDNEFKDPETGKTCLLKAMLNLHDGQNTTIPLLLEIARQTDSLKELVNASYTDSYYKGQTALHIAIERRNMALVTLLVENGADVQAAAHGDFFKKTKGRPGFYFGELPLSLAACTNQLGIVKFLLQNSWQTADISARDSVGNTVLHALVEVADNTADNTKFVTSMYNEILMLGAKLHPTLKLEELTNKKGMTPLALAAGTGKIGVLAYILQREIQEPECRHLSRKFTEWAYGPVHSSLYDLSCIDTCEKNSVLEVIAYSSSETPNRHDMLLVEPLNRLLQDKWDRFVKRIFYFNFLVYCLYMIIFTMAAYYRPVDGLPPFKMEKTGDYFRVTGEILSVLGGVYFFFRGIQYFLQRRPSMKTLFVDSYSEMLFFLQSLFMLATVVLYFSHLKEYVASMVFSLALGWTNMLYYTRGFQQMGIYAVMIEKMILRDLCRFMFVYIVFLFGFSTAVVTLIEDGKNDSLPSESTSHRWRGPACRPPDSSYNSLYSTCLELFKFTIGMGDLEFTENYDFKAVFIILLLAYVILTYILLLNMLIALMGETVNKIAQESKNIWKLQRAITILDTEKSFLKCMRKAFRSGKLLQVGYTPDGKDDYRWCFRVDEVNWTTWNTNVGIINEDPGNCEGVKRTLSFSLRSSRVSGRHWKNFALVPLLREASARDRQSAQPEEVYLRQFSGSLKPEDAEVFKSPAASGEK
Procedure, shortened: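 Calcium influx kinetics via Fluo-8 (480/520 nm) in TRPV1-expressing cells, 2000/well cultured overnight at 35.5C. Compound-alone read 3 min (agonist phase), followed by EC20 capsaicin challenge for 2 min (enhancer phase).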

[15] = biological target: DNA polymerase iota (Homo sapiens) (UniProt Q9UNA4); experiment: qHTS for Inhibitors of Polymerase Iota: Confirmatory Assay for Cherry-picked Compounds (AID 720496); settings: Pol iota primer extension, TAMRA/BHQ fluorescence; also: potency is read from the fitted curve at half-maximal effect
Sequence of UniProt Q9UNA4 (Q9UNA4 whole entry, looked up): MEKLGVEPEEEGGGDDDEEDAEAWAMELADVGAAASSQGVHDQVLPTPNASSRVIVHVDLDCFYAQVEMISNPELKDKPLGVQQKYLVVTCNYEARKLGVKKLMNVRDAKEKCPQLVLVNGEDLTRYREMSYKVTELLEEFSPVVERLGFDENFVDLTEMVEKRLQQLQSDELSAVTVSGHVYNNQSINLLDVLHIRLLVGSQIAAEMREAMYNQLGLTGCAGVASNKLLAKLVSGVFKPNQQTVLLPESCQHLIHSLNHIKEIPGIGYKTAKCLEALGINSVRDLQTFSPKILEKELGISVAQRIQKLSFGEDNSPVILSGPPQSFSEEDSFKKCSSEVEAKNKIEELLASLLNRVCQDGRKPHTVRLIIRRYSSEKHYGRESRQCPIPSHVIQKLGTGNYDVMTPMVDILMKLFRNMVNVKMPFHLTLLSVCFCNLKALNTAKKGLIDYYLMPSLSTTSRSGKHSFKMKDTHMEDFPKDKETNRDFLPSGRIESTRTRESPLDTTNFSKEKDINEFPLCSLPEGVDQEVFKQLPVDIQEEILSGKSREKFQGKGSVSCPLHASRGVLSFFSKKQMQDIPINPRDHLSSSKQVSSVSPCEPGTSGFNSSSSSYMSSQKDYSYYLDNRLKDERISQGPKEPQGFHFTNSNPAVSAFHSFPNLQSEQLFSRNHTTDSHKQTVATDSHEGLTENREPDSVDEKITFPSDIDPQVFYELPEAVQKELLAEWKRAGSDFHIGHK
Procedure, shortened: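 Step 1: 10 nM Pol iota with compound, 15 min, room temperature. Step 2: 50 nM final quenched DNA substrate added. Step 3: fluorescence (ex 525, em 598 nm) read at 0 and after 10 min.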

[16] = biological target: Flap endonuclease 1 (Homo sapiens) (UniProt P39748); experiment: qHTS Assay for the Inhibitors of FEN1: Confirmatory Assay for Cherry-picked Compounds (AID 720498); settings: FEN1 flap cleavage, TAMRA/BHQ2 fluorogenic DNA substrate; also: potency is read from the fitted curve at half-maximal effect; nearly all actives have a fitted effect of over 60% in size
Sequence of UniProt P39748 (P39748 whole entry, looked up): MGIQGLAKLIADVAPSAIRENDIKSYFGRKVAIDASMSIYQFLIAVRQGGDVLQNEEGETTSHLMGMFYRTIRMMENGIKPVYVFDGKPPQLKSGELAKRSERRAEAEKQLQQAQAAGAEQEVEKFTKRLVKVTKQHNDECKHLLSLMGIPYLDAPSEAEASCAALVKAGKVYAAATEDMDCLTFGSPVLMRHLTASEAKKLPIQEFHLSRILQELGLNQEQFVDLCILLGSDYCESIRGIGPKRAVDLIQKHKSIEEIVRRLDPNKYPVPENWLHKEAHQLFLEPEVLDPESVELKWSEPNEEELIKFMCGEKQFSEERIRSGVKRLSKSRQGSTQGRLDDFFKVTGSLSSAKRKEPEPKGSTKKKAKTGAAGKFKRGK
Procedure, shortened: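 FEN1 at 10 nM was preincubated with compound for 15 min at room temperature, then 50 nM (final) double-flap DNA substrate was added. TAMRA fluorescence released from the BHQ-2-quenched flap was read at 0 and 15 min (ex 525/em 598 nm).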

[17] = biological target: Rap guanine nucleotide exchange factor 3 (Homo sapiens) (UniProt O95398); experiment: Counterscreen qHTS for agonist of cAMP-regulated guanine nucleotide exchange factor 3 (EPAC1) (AID 1645889); settings: EPAC1 Rap1B-BODIPY-GDP exchange, fluorescence; activation: at 154 µM (top of the series) unless noted; also: % of control where 0% means no effect; nearly all actives have a fitted effect of over 40% in size
Procedure, shortened: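 Rap1B-BODIPY-GDP 250 nM + GDP 50 uM; cpds 7-pt, final 9.74 nM–152 uM (activator mode) or from 7.32 nM upwards (inhibitor mode); RT; FI 480/540 nm at 5 and 30 min, then ± cAMP, reread.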

[18] = biological target: DNA repair nuclease/redox regulator APEX1 (Homo sapiens) (UniProt P27695); experiment: qHTS Validation Assay for Inhibitors of the Human Apurinic/apyrimidinic Endonuclease 1 (APE1) (AID 1705; also: potency is read from the fitted curve at half-maximal effect)
Sequence of UniProt P27695 (P27695 whole entry, looked up): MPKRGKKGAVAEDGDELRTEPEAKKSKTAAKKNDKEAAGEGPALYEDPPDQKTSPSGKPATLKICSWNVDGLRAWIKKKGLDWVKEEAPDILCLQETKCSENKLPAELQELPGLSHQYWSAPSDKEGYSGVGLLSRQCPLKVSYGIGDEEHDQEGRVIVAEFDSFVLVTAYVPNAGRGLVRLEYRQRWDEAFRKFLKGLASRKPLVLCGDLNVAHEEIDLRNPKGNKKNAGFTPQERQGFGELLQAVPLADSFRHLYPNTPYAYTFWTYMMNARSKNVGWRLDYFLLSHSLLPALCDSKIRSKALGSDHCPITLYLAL
Procedure, shortened: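 Human APE1 was preincubated with compound for 15 min at room temperature, then 50 nM (final) THF-abasic double-stranded DNA substrate bearing 5'-TAMRA and 3'-BHQ-2 was added. Incision-driven fluorescence rise (ex 525/em 598 nm) was read kinetically.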

[19] = qHTS for differential inhibitors of proliferation of Plasmodium falciparum line GB4 (AID 1816); settings: Potency: Plasmodium falciparum GB4 proliferation inhibition;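 also: potency is read from the fitted curve at half-maximal effect; parasite growth measured after 72 h incubation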
[20] = qHTS for differential inhibitors of proliferation of Plasmodium falciparum line W2 (AID 1883); settings: Potency: Plasmodium falciparum W2 proliferation inhibition;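 also: potency is read from the fitted curve at half-maximal effect; parasites grown with compound for 72 h before lysis and staining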
[21] = biological target: Ferritin light chain (Equus caballus) (UniProt P02791); experiment: qHTS Validation Assay for Identification of Novel General Anesthetics (AID 2323); also: potency is read from the fitted curve at half-maximal effect
Sequence of UniProt P02791 (P02791 whole entry, looked up): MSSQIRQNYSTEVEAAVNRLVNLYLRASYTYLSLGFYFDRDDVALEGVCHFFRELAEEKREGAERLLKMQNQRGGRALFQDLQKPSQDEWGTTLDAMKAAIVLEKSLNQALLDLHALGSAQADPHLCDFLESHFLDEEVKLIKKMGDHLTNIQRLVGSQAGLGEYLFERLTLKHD
Procedure, shortened: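 Competitive displacement of profluorescent 1-aminoanthracene (1-AMA, 50% saturated solution in PBS) from 10 uM horse-spleen apoferritin. Compounds incubated 10 min at room temperature; fluorescence read at 380 nm excitation/535 nm emission, normalized to free 1-AMA and complex, fitted with four-parameter Hill equation.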

[22] = biological target: RecQ-like DNA helicase BLM (Homo sapiens) (UniProt P54132); experiment: qHTS Validation Assay for Inhibitors of Bloom's syndrome helicase (BLM) (AID 2364); also: potency is read from the fitted curve at half-maximal effect;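 as to activity change, negative = inhibition: plate controls were DMSO vehicle for no effect and enzyme-free control for full effect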
Sequence of UniProt P54132 (P54132 whole entry, looked up): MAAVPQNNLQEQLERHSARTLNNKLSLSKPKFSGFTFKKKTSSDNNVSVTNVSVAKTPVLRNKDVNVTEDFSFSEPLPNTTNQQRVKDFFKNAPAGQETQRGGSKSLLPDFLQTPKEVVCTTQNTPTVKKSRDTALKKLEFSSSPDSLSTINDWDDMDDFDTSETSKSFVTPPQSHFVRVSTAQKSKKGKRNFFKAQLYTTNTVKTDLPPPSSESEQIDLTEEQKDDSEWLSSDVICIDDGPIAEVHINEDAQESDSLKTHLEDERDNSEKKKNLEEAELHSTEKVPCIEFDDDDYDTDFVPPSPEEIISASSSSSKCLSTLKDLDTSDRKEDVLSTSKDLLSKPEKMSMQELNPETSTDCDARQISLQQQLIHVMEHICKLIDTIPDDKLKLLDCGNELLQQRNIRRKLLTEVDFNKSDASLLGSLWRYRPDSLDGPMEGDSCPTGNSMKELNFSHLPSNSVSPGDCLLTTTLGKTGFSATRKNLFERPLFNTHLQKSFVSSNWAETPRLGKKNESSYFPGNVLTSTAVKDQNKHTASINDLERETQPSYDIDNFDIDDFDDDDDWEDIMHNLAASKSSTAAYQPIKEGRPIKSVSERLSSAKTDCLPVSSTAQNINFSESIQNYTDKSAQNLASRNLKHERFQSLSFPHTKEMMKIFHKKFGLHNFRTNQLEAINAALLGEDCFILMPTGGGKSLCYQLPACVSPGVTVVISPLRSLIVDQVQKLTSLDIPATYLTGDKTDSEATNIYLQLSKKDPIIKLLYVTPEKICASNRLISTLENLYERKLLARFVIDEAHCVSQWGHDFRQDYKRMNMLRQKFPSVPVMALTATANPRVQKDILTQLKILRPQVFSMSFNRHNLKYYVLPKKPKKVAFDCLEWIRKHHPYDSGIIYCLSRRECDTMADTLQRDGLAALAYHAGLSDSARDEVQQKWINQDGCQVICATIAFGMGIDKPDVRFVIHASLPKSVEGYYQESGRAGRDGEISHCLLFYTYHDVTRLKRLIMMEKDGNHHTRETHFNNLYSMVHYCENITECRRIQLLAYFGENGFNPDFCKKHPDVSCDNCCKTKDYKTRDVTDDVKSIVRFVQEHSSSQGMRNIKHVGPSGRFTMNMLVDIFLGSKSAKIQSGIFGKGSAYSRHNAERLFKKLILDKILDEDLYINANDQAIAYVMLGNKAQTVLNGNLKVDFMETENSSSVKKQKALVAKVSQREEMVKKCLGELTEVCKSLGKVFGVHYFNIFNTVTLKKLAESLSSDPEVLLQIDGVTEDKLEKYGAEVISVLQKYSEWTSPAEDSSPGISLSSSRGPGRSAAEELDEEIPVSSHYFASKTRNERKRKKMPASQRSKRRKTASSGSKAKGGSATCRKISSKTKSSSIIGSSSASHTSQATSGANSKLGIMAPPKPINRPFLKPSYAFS
Procedure, shortened: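 Forked 20-bp duplex substrate (200 nM, TAMRA/BHQ-2) plus 2 mM ATP added after 15 min compound preincubation with 50 nM enzyme, pH 8.0, poly(dI-dC) 2.5 ug/ml. Strand separation followed by fluorescence (525/598 nm) over 2 h, normalized to enzyme-free and DMSO controls.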

[23] = biological target: DNA repair nuclease/redox regulator APEX1 (Homo sapiens) (UniProt P27695); experiment: Confirmation qHTS Assay for Inhibitors of the Human Apurinic/apyrimidinic Endonuclease 1 (APE1) (AID 2572);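 also: fluorescence gain from purified APE1 cutting a TAMRA/BHQ-2 THF abasic duplex; % is scaled to controls: 0 for no effect and ±100 for the full control effect; nearly all actives have a fitted effect of over 30% in size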
Procedure, shortened: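 15 min RT compound–APE1 preincubation → add 50 nM final THF-abasic TAMRA/BHQ-2 dsDNA → immediate kinetic read, 3 × 60 s, Ex 525/Em 598 → Δ fluorescence (read 3 − read 1).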

[24] = biological target: M-phase phosphoprotein 8 (Homo sapiens) (UniProt Q99549); experiment: qHTS Validation Assay for Inhibitors for MPP8 Chromodomain Interactions with Methylated Histone Tails (AID 488949); also: potency is read from the fitted curve at half-maximal effect; nearly all actives have a fitted effect of over 55% in size
Sequence of UniProt Q99549 (Q99549 whole entry, looked up): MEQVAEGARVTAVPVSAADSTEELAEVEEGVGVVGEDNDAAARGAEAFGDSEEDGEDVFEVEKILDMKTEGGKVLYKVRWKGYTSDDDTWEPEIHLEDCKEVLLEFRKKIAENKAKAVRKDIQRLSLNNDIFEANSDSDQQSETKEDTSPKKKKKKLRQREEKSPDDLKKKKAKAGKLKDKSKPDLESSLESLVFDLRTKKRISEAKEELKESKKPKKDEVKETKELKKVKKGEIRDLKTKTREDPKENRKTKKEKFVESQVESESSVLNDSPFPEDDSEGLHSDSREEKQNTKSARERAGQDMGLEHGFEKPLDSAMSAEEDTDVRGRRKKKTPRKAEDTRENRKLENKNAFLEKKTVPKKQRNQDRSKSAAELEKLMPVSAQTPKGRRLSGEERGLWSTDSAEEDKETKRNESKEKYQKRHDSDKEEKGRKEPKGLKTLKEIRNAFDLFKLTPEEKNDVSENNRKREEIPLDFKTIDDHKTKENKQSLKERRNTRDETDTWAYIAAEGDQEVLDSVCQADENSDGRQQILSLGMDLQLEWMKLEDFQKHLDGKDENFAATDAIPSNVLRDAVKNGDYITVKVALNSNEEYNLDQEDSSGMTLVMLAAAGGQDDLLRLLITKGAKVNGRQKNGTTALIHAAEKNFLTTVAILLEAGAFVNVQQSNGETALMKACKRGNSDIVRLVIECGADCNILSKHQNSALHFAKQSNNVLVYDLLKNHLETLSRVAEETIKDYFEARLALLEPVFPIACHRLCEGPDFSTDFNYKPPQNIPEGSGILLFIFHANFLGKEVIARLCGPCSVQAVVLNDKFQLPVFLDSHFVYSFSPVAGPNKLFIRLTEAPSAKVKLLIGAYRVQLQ
Procedure, shortened: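 MPP8 (50 nM) was preincubated with biotinylated H3(1-18)K9me3 peptide (50 nM) in PBS pH 7.4, 0.01% Tween-20 for 30 min at room temperature, then with compounds for 30 min; binding was detected by AlphaScreen.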

[25] = Validation screen for inhibitors of Lassa infection (AID 463096; calls by dose curve; also: % is scaled to controls: 0 for no effect and ±100 for the full control effect)
Tags tell the direction and shape of the fitted curve or compound fluorescence and quenching.

COc1cc(C=C(C#N)C#N)cc(O)c1O
inconclusive: Potency [2] 3.16 µM [inhibitor, full curve] | activity change, negative = inhibition [4] -24.9% [phenotype inactive] | Potency [5] 17.8 µM [inhibitor, partial curve, poor fit] | Potency [7] 14.1 µM [inhibitor, partial curve] | Potency [8] 11.2 µM [inhibitor, single point] | Potency [9] 10 µM [inhibitor, partial curve] | Potency [10] 14.1 µM [inhibitor, single point] | Potency [11] 11.2 µM [inhibitor, single point] | Potency [12] 20 µM [activator, single point] | Potency [13] 10.4 µM [inhibitor, partial curve, poor fit]
inactive: activity change, negative = inhibition [1] -29.4% [at 38 µM] | Potency [3] | Potency [6] | Potency [14]

Cn1cccc1/C=C1/C(=O)NC(=S)N(Cc2ccc(F)cc2)C1=O
active: Potency [15] 21.2 µM
inconclusive: Potency [16] 75.7 µM [inhibitor, partial curve]
inactive: activation [17] 10.8% [at 30.8 µM]

N#CC(=Cc1ccc(O)c(O)c1)C(N)=S
inconclusive: Potency [18] 5.01 µM [inhibitor, full curve] | Potency [7] 12.6 µM [inhibitor, single point] | Potency [19] 12.6 µM [inhibitor, partial curve] | Potency [8] 12.6 µM [inhibitor, single point] | Potency [20] 12.6 µM [inhibitor, partial curve] | Potency [11] 11.2 µM [inhibitor, partial curve] | Potency [21] 11.2 µM [inhibitor, partial curve] | Potency [22] 12.6 µM [inhibitor, partial curve]
active: Potency [24] 44.7 µM
inactive: Potency [6] | Potency [23]

C=CCN1CC[C@@]2(C)c3cc(O)ccc3CC1[C@@H]2C
active: Potency [7] 7.94 µM
inactive: Potency [18] | Potency [6] | Potency [22] | Potency [25]
inconclusive: Potency [8] 12.6 µM [inhibitor, single point] | Potency [10] 7.94 µM [inhibitor, partial curve] | Potency [11] 17.8 µM [inhibitor, single point]
